{"source": "PubChem BioAssay AID1477", "about": "(National Center for Advancing Translational Sciences (NCATS), 2009)", "note": "Screen size: about 230,000 compounds; fewer than 10 were called active. The shares of active, inactive and inconclusive entries below differ from those in the screen. Calls follow the shape of the dose curve; as a rule, active = well fitted curve in the direction sought with a large enough effect; inconclusive = small, poorly fitted or top-dose-only effect, or effect the other way, or another doubt; inactive = no such curve, though single readings can be large or run the other way. Potencies of inconclusive entries are left out as doubtful fits.", "data": [{"target": "Runt-related transcription factor 1 (Homo sapiens) + Core-binding factor subunit beta (Homo sapiens) (UniProt Q01196+Q13951)", "sequence (Q01196 whole entry, looked up)": "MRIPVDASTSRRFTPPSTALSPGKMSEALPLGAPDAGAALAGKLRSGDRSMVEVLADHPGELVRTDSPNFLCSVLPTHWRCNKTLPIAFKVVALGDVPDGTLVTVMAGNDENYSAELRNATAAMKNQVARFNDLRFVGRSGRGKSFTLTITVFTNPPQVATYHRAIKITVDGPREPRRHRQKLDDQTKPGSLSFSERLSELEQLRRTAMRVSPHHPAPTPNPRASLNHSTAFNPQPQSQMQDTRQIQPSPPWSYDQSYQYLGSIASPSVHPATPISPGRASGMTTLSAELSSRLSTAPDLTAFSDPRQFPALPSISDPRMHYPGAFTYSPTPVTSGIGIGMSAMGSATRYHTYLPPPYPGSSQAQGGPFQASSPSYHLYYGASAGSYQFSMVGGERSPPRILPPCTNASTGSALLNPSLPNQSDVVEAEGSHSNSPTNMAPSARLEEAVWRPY", "sequence (Q13951 whole entry, looked up)": "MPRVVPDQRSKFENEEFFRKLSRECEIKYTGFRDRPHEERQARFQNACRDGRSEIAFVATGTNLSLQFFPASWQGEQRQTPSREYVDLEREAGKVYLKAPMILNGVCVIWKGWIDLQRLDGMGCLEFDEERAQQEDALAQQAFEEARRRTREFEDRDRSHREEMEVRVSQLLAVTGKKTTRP", "assay": "qHTS Assay for Compounds Blocking the Interaction Between CBF-beta and RUNX1 for the Treatment of Acute Myeloid Leukemia; as to activity, negative = inhibition: % of control where 0% means no effect", "details": "AlphaScreen CBFb-His/RUNX1-biotin binding, biochemical; activity, negative = inhibition: at 59.8 µM (top of the series) unless noted", "in_short": "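Bead-based AlphaScreen assay; binding partners His-tagged CBF-beta and biotinylated RUNX1 at 30 nM each. Compound exposure 15 min after a 20-min protein preincubation; bead step 90 min; all steps at room temperature.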", "values": [{"smiles": "COc1ccc(/C=C2/SC(=S)N(c3ccc(S(=O)(=O)Nc4nccs4)cc3)C2=O)cc1", "Potency": "inconclusive [inhibitor, single point]"}, {"smiles": "O=C1Nc2ccc3sc4ccccc4c3c2C1=O", "Potency": "inconclusive [activator, partial curve]"}, {"smiles": "CCOc1cc(/C=N/NC(=O)CN(CCc2ccccc2)S(=O)(=O)c2ccc(NC(C)=O)cc2)ccc1O", "activity, negative = inhibition": "inactive: -6.09%"}, {"smiles": "CN1C[C@H](CNC(=O)OCc2ccccc2)C[C@@H]2c3cccc4c3c(cn4C)C[C@H]21", "Potency": "inactive"}, {"smiles": "O=C(NCc1ccccn1)c1ccc2nc(-c3ccco3)c(-c3ccco3)nc2c1", "Potency": "inconclusive [inhibitor, partial curve]"}, {"smiles": "COc1ccc(CN2CCC(CNC(=O)NC3CCCCC3)CC2)cc1", "activity, negative = inhibition": "inactive: 0.346%"}, {"smiles": "COc1cc(S(=O)(=O)Nc2ccccc2)ccc1N=Cc1c(C)[nH]n(-c2ccc(C)cc2)c1=O", "Potency": "inconclusive [inhibitor, single point]"}, {"smiles": "CO/N=C(\\C(=O)N[C@@H]1C(=O)N2C(C(=O)O)=C(COC(C)=O)CS[C@H]12)c1csc(N)n1", "note": "(stereo in doubt)", "Potency": "inconclusive [inhibitor, single point]"}, {"smiles": "OCc1ccc(-c2nn(Cc3ccccc3)c3ccccc23)o1", "Potency": "inconclusive [inhibitor, single point]"}, {"smiles": "CCCN1C=CC(=C2C(=O)c3ccccc3C2=O)C=C1", "activity, negative = inhibition": "inactive: -0.445%"}, {"smiles": "CCN(CC)c1ccc(NC(=O)COC(=O)c2cccs2)cc1", "Potency": "inconclusive [inhibitor, partial curve]"}, {"smiles": "COC(CNC(=O)c1ccc(N2CCc3ccccc32)c([N+](=O)[O-])c1)OC", "activity, negative = inhibition": "inactive: -11.1%"}, {"smiles": "COC(=O)\\C(C(C)=O)=C(/C=C/C=C/C=C/N(C)C)N(C)C", "Potency": "inconclusive [inhibitor, partial curve]"}, {"smiles": "CCOc1nc(-c2ccccc2)ccc1-c1noc(COC)n1", "Potency": "inconclusive [activator, partial curve]"}, {"smiles": "Cc1cc(N2CCC(C)CC2)n2nc(C)c(-c3ccccc3)c2n1", "Potency": "inconclusive [activator, partial curve]"}, {"smiles": "O=C(/C=C/c1ccc(/C=C/C(=O)Nc2ccc(C3=NCCN3)cc2)cc1)Nc1ccc(C2=NCCN2)cc1", "Potency": "inconclusive [activator, partial curve]"}, {"smiles": "Cc1cccc(-n2cnc(C(=O)NNC(=S)Nc3ccc(Cl)cc3)c2)n1", "Potency": "inconclusive [inhibitor, partial curve]"}, {"smiles": "CC(Oc1ccccc1)C(=O)Nc1oc(-c2ccco2)c(-c2ccco2)c1C#N", "note": "(centres undefined)", "Potency": "inconclusive [inhibitor, single point]"}, {"smiles": "O=C(Nc1ccc(CN2CCOCC2)cc1)c1cc2ccccc2o1", "activity, negative = inhibition": "inactive: -3.59%"}, {"smiles": "Nc1ccccc1SC(C[N+](=O)[O-])c1ccccc1", "note": "(centres undefined)", "Potency": "inconclusive [inhibitor, full curve, poor fit]"}, {"smiles": "COC(=O)C1=CN(c2cccc(C)c2)C=C(C(=O)OC)C1c1cc(OC)c(O)c([N+](=O)[O-])c1", "Potency": "inconclusive [inhibitor, partial curve]"}, {"smiles": "CC(C)C[C@@H](/C=C/S(C)(=O)=O)NC(=O)[C@H](CC(C)C)NC(=O)[C@H](CC(C)C)NC(=O)OCc1ccccc1", "activity, negative = inhibition": "inactive: -6.85%"}, {"smiles": "CCOC(=O)c1cc(C#N)c(N2CCN(c3ccccn3)CC2)nc1-c1ccccc1", "Potency": "inconclusive [activator, single point]"}, {"smiles": "O=C(c1cc(-c2ccccc2)n[nH]1)N1CCc2c([nH]c3ccccc23)C1c1ccccn1", "note": "(centres undefined)", "Potency": "inconclusive [inhibitor, partial curve]"}, {"smiles": "CS(=O)(=O)Nc1ccc(C2=NN(C(=O)c3ccco3)C(c3ccccc3F)C2)cc1", "note": "(centres undefined)", "activity, negative = inhibition": "inactive: -4.12%"}, {"smiles": "CCOc1ccc2c(c1)C(c1ccc(C)o1)=NNC(c1ccncc1)=N2", "Potency": "inconclusive [inhibitor, single point]"}, {"smiles": "C[n+]1ccc(/C=C/c2ccccc2O)c2ccccc21", "activity, negative = inhibition": "inactive: -4.02%"}, {"smiles": "Clc1ccc2oc(-c3cccnc3)nc2c1", "activity, negative = inhibition": "inactive: 6.97%"}, {"smiles": "CN(Cc1ccc(F)cc1)C(=O)c1cc(COc2ccc(F)cc2F)on1", "Potency": "inconclusive [activator, partial curve]"}, {"smiles": "Cc1ccc(S(=O)(=O)c2cc3c(=O)n4ccccc4nc3n(Cc3ccco3)c2=N)cc1", "Potency": "inconclusive [inhibitor, single point]"}, {"smiles": "CN1C(=O)NC(=O)[C@]2(Cc3ccccc3N3CCN(c4ccccc4)CC32)C1=O", "note": "(some centres undefined)", "activity, negative = inhibition": "inactive: -5.93%"}, {"smiles": "Cc1cccc(NC(=O)c2ccc(N3CCCCC3)c([N+](=O)[O-])c2)n1", "Potency": "inconclusive [inhibitor, partial curve]"}, {"smiles": "Cc1cc(CNC(=O)Cn2nc(C)c([N+](=O)[O-])c2C)c2ccccc2n1", "activity, negative = inhibition": "inactive: -17.6%"}, {"smiles": "CC[C@H](C)[C@@H](NC(=O)O[C@@H]1C(=O)c2cc(OC)ccc2O[C@H]1c1cccc(OC)c1)C(=O)OC", "activity, negative = inhibition": "inactive: 7.03%"}, {"smiles": "C=C(C)C(=O)Nc1cccc(C2=NOC3(C2)C[C@H](C(N)=O)N(C(=O)COc2ccc(Cl)cc2)C3)c1", "note": "(some centres undefined)", "Potency": "inconclusive [inhibitor, partial curve]"}, {"smiles": "CN1CCC[C@H]1c1cccnc1", "Potency": "inconclusive [activator, partial curve, poor fit]"}, {"smiles": "c1ccc(CCn2nnnc2CN2CCC(n3nnc4ccccc43)CC2)cc1", "activity, negative = inhibition": "inactive: 5.7%"}, {"smiles": "Cc1cccc(C2=NN(c3ccccc3)[C@@H](C(=O)N3CCOC3=O)[C@@H]2c2ccccc2)c1", "Potency": "inconclusive [activator, partial curve]"}, {"smiles": "COc1ccccc1NS(=O)(=O)c1cc([N+](=O)[O-])ccc1N/N=C/c1c(C)[nH]c2ccccc12", "activity, negative = inhibition": "inactive: -11.8%"}, {"smiles": "Cc1cccc(CN2CCC(CNC(=O)CSc3cc(=O)n(C)c4cc(Cl)ccc34)CC2)c1", "activity, negative = inhibition": "inactive: 15.6%"}, {"smiles": "COc1c(OC)c2occc2c2oc(=O)ccc12", "activity, negative = inhibition": "inactive: 3.66%"}, {"smiles": "CCOC(=O)c1c(C)nc2c(c1-c1cc(OC)ccc1OC)C(=O)CC(C)(C)C2", "activity, negative = inhibition": "inactive: -0.562%"}, {"smiles": "COc1ccc2cc(-c3[nH]ncc3CN3CCCN(c4ccccc4)CC3)ccc2c1", "Potency": "inconclusive [inhibitor, single point]"}, {"smiles": "CNS(=O)(=O)c1ccc2nc(NC(=O)/C=C/c3ccco3)sc2c1", "Potency": "inconclusive [inhibitor, single point]"}, {"smiles": "CC1=CC(C)(C)N(C(=O)CSc2ncn[nH]2)c2ccccc21", "activity, negative = inhibition": "inactive: -1%"}, {"smiles": "Cc1[nH][nH]c(=O)c1C(c1c(C)[nH][nH]c1=O)c1cn(Cc2cccc3ccccc23)c2ccccc12", "Potency": "inconclusive [inhibitor, single point]"}, {"smiles": "CC(C)=CCC/C(C)=C/COc1ccc2ccc(=O)oc2c1", "Potency": "inconclusive [activator, partial curve]"}, {"smiles": "CCOC(=O)c1cc2ccc3ccccc3c2s1", "Potency": "inconclusive [activator, single point]"}, {"smiles": "N#C/C(=C\\c1cc(Cl)cc(Cl)c1)c1cccnc1", "Potency": "inactive"}, {"smiles": "Cc1snc(SCC(=O)c2ccc(Cl)cc2)c1C#N", "activity, negative = inhibition": "inactive: 8.38%"}, {"smiles": "Clc1cccc(-c2ccc(C=Nc3ccc(N4CCOCC4)cc3)o2)c1Cl", "Potency": "inconclusive [inhibitor, partial curve]"}, {"smiles": "C/C(=N/OC(=O)C1CC1c1ccccc1)c1ccccc1", "note": "(centres undefined)", "Potency": "inconclusive [activator, full curve]"}, {"smiles": "O=C(NC(=S)Nc1cccc2c(O)cccc12)c1cccc(Br)c1", "Potency": "inconclusive [inhibitor, single point]"}, {"smiles": "COc1ccc(C2=CC(c3ccc(OC)c(OC)c3)NC(=S)N2)cc1", "note": "(centres undefined)", "activity, negative = inhibition": "inactive: -5.98%"}, {"smiles": "C=CCC(C)(NCc1ccccc1)c1ccco1", "note": "(centres undefined)", "activity, negative = inhibition": "inactive: 1.17%"}, {"smiles": "Clc1ccc(COC(Cn2ccnc2)c2ccc(Cl)cc2Cl)cc1", "note": "(centres undefined)", "Potency": "inconclusive [inhibitor, partial curve]"}, {"smiles": "O=C(NCCOc1ccc(F)cc1)c1ccccc1SCc1ccccc1", "Potency": "inconclusive [activator, single point]"}, {"smiles": "COCc1nnc(NC(=O)c2cc(Cl)ccc2OC)s1", "Potency": "inconclusive [activator, single point]"}, {"smiles": "O=C(Nc1ccccc1Sc1ccccc1)c1ccccc1", "Potency": "inconclusive [activator, single point]"}, {"smiles": "Nc1c(C(=O)Nc2ccccc2)c2nc3ccccc3nc2n1CCCN1CCOCC1", "Potency": "inconclusive [activator, partial curve]"}, {"smiles": "CO/N=C/c1ccc(N2CCN(C(=O)c3ccc(Cl)cc3Cl)CC2)c([N+](=O)[O-])c1", "Potency": "inconclusive [inhibitor, partial curve]"}, {"smiles": "S=c1[nH]nc(-c2cc3c(s2)-c2ccccc2CC3)o1", "Potency": "inconclusive [activator, partial curve]"}, {"smiles": "O=C(O)Cc1csc(-c2cccc(F)c2)n1", "Potency": "inconclusive [activator, single point]"}, {"smiles": "Cc1ccc(-n2[nH]c(C)c(/C=N/NC(=O)c3cccc([N+](=O)[O-])c3)c2=O)cc1C", "Potency": "inconclusive [inhibitor, single point]"}, {"smiles": "Cc1cc(C(=O)CSc2nc(N)cc(=O)[nH]2)c(C)n1CCc1ccc(F)cc1", "activity, negative = inhibition": "inactive: -10.5%"}, {"smiles": "O=C(N/N=C/c1cc(Br)cs1)c1ccccc1[N+](=O)[O-]", "activity, negative = inhibition": "inactive: -4.75%"}, {"smiles": "COc1cc(C=C(c2nc3ccccc3s2)c2nc3ccccc3s2)ccc1O", "Potency": "inconclusive [inhibitor, single point]"}, {"smiles": "COc1ccc(N2CCC(CNC(=S)Nc3cc(C)cc(C)c3)C2)cc1", "note": "(centres undefined)", "Potency": "inconclusive [inhibitor, single point]"}, {"smiles": "Cc1ccccc1-n1c(O)c(/C=N/NC(=O)c2ccccc2O)c(=O)[nH]c1=S", "Potency": "inconclusive [inhibitor, single point]"}]}]}
